Data published in PubChem BioAssay AID652104 (National Center for Advancing Translational Sciences (NCATS), 2013).
Out of some 410,000 compounds screened, about 7,200 (1.8%) were called active. The inconclusive results got no clear call from the source; some entries with a clear call stand among them for comparison. Calls follow the shape of the dose curve; as a rule, active = well fitted activation curve with a large enough effect; inconclusive = small, poorly fitted or top-dose-only effect, or another doubt; inactive = no such curve, though single readings can be large or run the other way. Potencies of inconclusive entries are left out as doubtful fits.

Test: qHTS of TDP-43 Inhibitors; also: nearly all actives have a fitted effect of over 50% in size; as to growth rescue (activation): % of control where 0% means no effect
Conditions: TDP-43 expressing yeast growth rescue, BacTiter-Glo, 24 h; growth rescue (activation): at 46.1 µM (top of the series) unless noted
In short: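 Luminescence from BacTiter-Glo reports growth of TDP-43-expressing yeast after 24 hr at 30 deg C with compound. Cells were raffinose-pregrown to mid-log, then seeded in galactose medium at OD600=0.02.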
Potency is read from the fitted curve at half-maximal effect; tags tell the direction and shape of the fitted curve.

| Compound | Potency | growth rescue (activation) |
| --- | --- | --- |
| CC(C)=CCCC1(C)C=Cc2c(c(C)cc3c2[nH]c2cc(O)ccc23)O1 (stereo unspecified) | inconclusive [activator, partial curve] | – |
| Cc1ccc(NC(=O)COCc2cc(-c3cccs3)on2)cc1Cl | inactive | – |
| CCOc1ccc(OCCCC(=O)NCCc2ccc(OC)cc2)cc1 | inactive | – |
| N#C/C(=C/c1ccc(F)cc1)C(N)=S | inactive | – |
| COc1ccc(S(=O)(=O)Nc2ccc3c(c2)C(=O)N([C@H](C)CO)C[C@H](C)[C@@H](CN(C)S(=O)(=O)c2ccccc2)O3)cc1 | inactive | – |
| O=C(c1ccc(N2CCN(C3CC(=O)N(Cc4cccs4)C3=O)CC2)cc1)c1cccnc1 (stereo unspecified) | inconclusive [activator, single point] | – |
| COc1ccc(/C=C(\CC(=O)O)c2nc3ccccc3s2)cc1O | – | inconclusive: -84.2% [activator] |
| CCCn1nnnc1NC(=O)COc1ccc(Cl)cc1C | inconclusive [activator, single point] | – |
| COC(=O)c1ccc(COC(=O)C2CCN(S(=O)(=O)c3ccccc3C(=O)OC)CC2)cc1 | inconclusive [activator, partial curve] | – |
| Cc1cc(C)c2cc(C(=O)Nc3ccccc3)[nH]c2c1 | inconclusive [activator, partial curve] | – |
| O=C1[C@@H]2[C@@H](CN3CN(c4ccccc4)N=C(c4ccccc4)[C@@]23c2ccccc2)C(=O)N1c1ccccc1 | inconclusive [activator, partial curve] | – |
| CCOc1ccc(S(=O)(=O)N2CCN(c3ccc(C)cc3C)CC2)c2ccccc12 | inactive | – |
| Cc1c(Nc2scc(-c3ccccc3)[n+]2-c2ccccc2)c(=O)n(-c2ccccc2)n1C | inconclusive [activator, partial curve, poor fit] | – |
| COc1ccc(C(=O)NCCS(=O)(=O)N2CCc3ccccc3C2)c(OC)c1 | inconclusive [activator, single point] | – |
| Cc1cc(C)cc(NC(=O)c2ccc(Cn3nc(C)c(Cl)c3C)o2)c1 | inconclusive [activator, single point] | – |
| CCC1(C)Cc2c(sc(NC(=S)NC(=O)c3ccccc3)c2C#N)CO1 (stereo unspecified) | inconclusive [activator, full curve] | – |
| Cc1cc(C)nc(SCc2cc(=O)c(OC(=O)c3ccc(S(=O)(=O)N(C)C)cc3)co2)n1 | inactive | – |
| CC(C)c1nn2c(=O)cc(COC(=O)c3ccccc3Cl)nc2s1 | inconclusive [activator, partial curve, poor fit] | – |
| CC(C)(C)C(=O)Nc1nnc(SCc2cccc(F)c2)s1 | inconclusive [activator, partial curve] | – |
| Cc1cc(N2CCN(c3ccccc3)CC2)n2ncnc2n1 | inconclusive [activator, partial curve] | – |
| COc1cccc(NS(=O)(=O)c2c(C)nc3sccn3c2=O)c1 | inconclusive [activator, partial curve, poor fit] | – |
| COCC(C)NC(=O)c1nn(Cc2ccccc2)c(=O)c2ccccc12 (stereo unspecified) | inconclusive [activator, partial curve] | – |

| Compound | Potency | growth rescue (activation) |
| --- | --- | --- |
| COCc1cc(C)n(CC(=O)Nc2cccc(C(C)=O)c2)c(=O)c1C#N | inactive | – |
| CSc1cccc(NC(=O)CN(C)S(=O)(=O)c2ccc3c(c2)CCCN3C(C)=O)c1 | inactive | – |
| O=C(CN1CCN(c2ccccc2)CC1)Nc1ccc(OCc2ccccc2)cc1 | inconclusive [activator, single point] | – |
| O=C(N/C=C/n1cnc2cc(C(F)(F)F)ccc21)c1ccc(F)cc1 | inconclusive [activator, full curve] | – |
| CCC(=O)N1c2ccccc2CC1C(=O)NCCc1ccc(Cl)cc1 (stereo unspecified) | inactive | – |
| NNC(=O)c1ccc(COc2ccccc2)cc1 | inconclusive [activator, partial curve] | – |
| Cc1ccc(CNC(=O)c2cccc(OCc3c(C)noc3C)c2)cc1 | inconclusive [activator, single point] | – |
| Clc1cc(NCc2cccs2)ccc1N1CCOCC1 | inconclusive [activator, single point] | – |
| COc1ccc(Cl)cc1NC(=O)CCCS(=O)(=O)c1nc(-c2ccc(OC)c(OC)c2)cc(C(F)(F)F)n1 | inconclusive [activator, partial curve] | – |
| Cc1cccc(NC2=C(NC(=O)c3ccccc3)C(=O)c3ccccc3C2=O)c1 | inconclusive [activator, partial curve] | – |
| N#CC(c1ccccc1)c1ccc([N+](=O)[O-])cc1 (stereo unspecified) | inconclusive [activator, single point] | – |
| CSc1c(C#N)c(N)c(C#N)c2c1COC(C)(C)C2 | inconclusive [activator, single point] | – |
| CC(C)(C)c1csc(NC(=O)c2c(F)c(F)c(F)c(F)c2F)n1 | inconclusive [activator, single point] | – |
| O=C1CC(c2ccsc2)Sc2ccccc2N1 (stereo unspecified) | inconclusive [activator, partial curve] | – |
| COC(=O)c1c(N(S(C)(=O)=O)S(C)(=O)=O)sc2c1CCN(c1ncc(C(F)(F)F)cc1Cl)C2 | inactive | – |
| Fc1ccc2[nH]c3c(c2c1)CN(C(=S)NCc1ccccc1)CC3 | active: 15.8 µM | – |
| CCCCOc1ccc(CC(=O)NO)cc1 | inconclusive [activator, partial curve] | – |
| Cc1c(C(=O)N(C)C2CCCCC2)sc2ncnc(N3CCN(c4ccccc4F)CC3)c12 | inconclusive [activator, single point] | – |
| COc1ccc(-n2c(=S)[nH]c3ccccc32)cc1 | inconclusive [activator, partial curve, poor fit] | – |
| Cc1ccccc1CC1(CO)CCCN(C(=O)c2ccccc2N(C)C)C1 (stereo unspecified) | inconclusive [activator, partial curve] | – |
| COc1cc(C(C)=O)ccc1COc1ccc(C(=O)OCC(N)=O)cc1OC | inconclusive [activator, partial curve] | – |
| O=C(COc1ccccc1)Nc1ccc2nc(SCC(=O)N3CCCC3)sc2c1 | active: 31.6 µM | – |

| Compound | Potency | growth rescue (activation) |
| --- | --- | --- |
| O=C(c1ccc2c(c1)OCCO2)C1CCN(C(=O)Nc2ccccc2F)CC1 | inconclusive [activator, single point] | – |
| COc1ccc(CNc2ccccc2)cc1Br | inconclusive [activator, single point] | – |
| CCOC(=O)C1=C(C)Nc2nc3ccccc3n2C1c1ccncc1 (stereo unspecified) | inconclusive [activator, partial curve, poor fit] | – |
| O=[N+]([O-])/C(C(Cl)=C(Cl)Cl)=C(/Sc1ccccc1)N1CCCCC1 | inconclusive [activator, single point] | – |
| CN=c1scc(-c2cccs2)n1/N=C/c1ccc(O)c(O)c1O | – | inactive: -10% [at 0.397 µM] |
| COC(=O)c1ccccc1NC(=O)CSc1n[nH]c(-c2ccncc2)n1 | inactive | – |
| CCOc1ccc(CCNC(=O)c2cc3c(-c4ccccc4F)nn(C)c3s2)cc1OCC | inactive | – |
| Cc1ccccc1CNC(=O)CCSCc1cnn(-c2ccccc2)c1-n1cccc1 | inconclusive [activator, partial curve] | – |
| c1ccc(Oc2cc(-n3cncn3)ncn2)cc1 | inconclusive [activator, partial curve] | – |
| COc1ccc(-c2sc3ccc(N4CCOCC4)cc3c2C#CCCO)cc1 | inconclusive [activator, single point] | – |
| CC(C)(C)NC(=O)NC(=O)CN1CCCCCCC1 | inconclusive [activator, partial curve] | – |
| COC(=O)c1cc2oc3ccccc3c2n1CC(=O)Nc1ccc(N(C)C)cc1 | inconclusive [activator, full curve] | – |
| O=[N+]([O-])c1cc2c(c3cccnc13)COCO2 | inconclusive [activator, partial curve, poor fit] | – |
| CCC(=O)N1c2ccc(S(=O)(=O)N3CCCCCC3)cc2CC1C (stereo unspecified) | inconclusive [activator, single point] | – |
| COC(=O)c1cc(C)nc2c1c(=O)nc(SCc1c(C)cc(C)cc1C)n2C1CC1 | inconclusive [activator, single point] | – |
| Cc1ccc(S(=O)(=O)N(CC(=O)Nc2c(C)cccc2C)c2cccc(Cl)c2)cc1 | inconclusive [activator, full curve] | – |
| COc1cccc(CNS(=O)(=O)c2ccccc2Br)c1OC | inconclusive [activator, single point] | – |
| O=C(CCC(=O)N/N=C/c1ccco1)N/N=C/c1ccco1 | inconclusive [activator, partial curve] | – |
| Cc1ccc2nc(CN3CCN(S(=O)(=O)c4ccccc4)CC3)oc2c1 | inconclusive [activator, partial curve] | – |
| COc1ccccc1NC(=O)c1ccc(Cl)c(S(=O)(=O)N2CCCCC2)c1 | inconclusive [activator, partial curve] | – |
| O=C(NCc1ccccc1Cl)c1cccc(NC(=O)c2ccccc2)c1 | inconclusive [activator, partial curve] | – |
| Cc1ccccc1C(=O)c1cccn1CC(=O)NC(C)c1ccccc1 (stereo unspecified) | inconclusive [activator, single point] | – |
